Results as given in ChEMBL document CHEMBL4888484, “Replenishing the malaria drug discovery pipeline: Screening and hit evaluation of the MMV Hit Generation Library 1 (HGL1) against asexual blood stage Plasmodium falciparum ,using a nano luciferase reporter read-out” (2022).
The campaign covered roughly 150,000 compounds. About 540 (0.36%) showed an effect of 50% or more. The list shows a part of the results.

These compounds were tested on Plasmodium falciparum (assay: Primary screen in NF54 nanoGlo assay, in single point, at 2uM, 72h; a lower Z score goes with more inhibition). Details: timepoint 72 hour.
Format: functional, Erythrocyte
For CN(C)c1ccc(CCc2nc(C3CC3)nn2-c2ccncc2)cc1, the “% Inhibition” value was -4% and the Z score was 0.45.
c1ccc2c(c1)ncn2CC1CCN(Cc2cn3ccccc3n2)CC1 was tested, and the “% Inhibition” value was -5% and the Z score was 0.6.
With O=C(NCc1nccnc1-c1ccoc1)c1cscn1 the “% Inhibition” value was 16% and the Z score was -1.97.
COCCn1ccnc1[C@H]1CC(=O)Nc2nn3c(C)cc(C)nc3c21 was tested, and the “% Inhibition” value was -3% and the Z score was 0.44.
In the case of COCc1noc(Cn2ncc(N3CCc4ccccc4C3)cc2=O)n1, the “% Inhibition” value is reported as -3% and the Z score is reported as 0.45.
In the case of Cc1nnc(-c2ccc3ccn(CC(=O)NC4CCCCCC4)c3c2)o1, the “% Inhibition” value is reported as 1% and the Z score is reported as -0.11.
O=C([C@H]1CCCN1S(=O)(=O)c1ccccc1)N1CCCc2occc2C1 was tested, and the “% Inhibition” value was -8% and the Z score was 1.42.
CN(C(=O)C1(C#N)CCCCC1)[C@H]1CCN(CC(F)(F)F)C1=O was tested, and the “% Inhibition” value was -7% and the Z score was 1.01.
In the case of COCc1nc2n(n1)C[C@@H](NCc1cccc3[nH]ccc13)CC2, the “% Inhibition” value is reported as 3% and the Z score is reported as -0.4.
For Cc1cncc(NC(=O)C[C@H](O)C(Cl)(Cl)Cl)c1, the “% Inhibition” value was -8% and the Z score was 1.01.
For COc1ccccc1[C@@H]1CC(c2ccc(C)cc2)=NN1C(=O)CN(C)C1CCCCC1, the “% Inhibition” value was -2% and the Z score was 0.27.
For Cc1ccc(C(=O)N2CC(=O)c3ccccc3S2(=O)=O)cc1, the “% Inhibition” value was -43% and the Z score was 5.
CC(=O)N1CC2(CCN(C(=O)c3cc(C)nc4c3cnn4C)CC2)[C@H]2COC[C@H]21 was tested, and the “% Inhibition” value was -1% and the Z score was 0.13.
For CN1CCN(C(=O)c2ccc[nH]2)C[C@@]12CCC(=O)N(CC1CC1)CC2, the “% Inhibition” value was -8% and the Z score was 1.51.
In the case of COc1ccc(Cc2c3cc(OC)c(OC)cc3cc[n+]2CC(=O)c2ccccc2)cc1OC, the “% Inhibition” value is reported as -8% and the Z score is reported as 0.67.
In the case of O=C(CCNc1ccc(C(=O)N2CCCCC2)cc1)c1ccc2c(c1)OCO2, the “% Inhibition” value is reported as -18% and the Z score is reported as 1.79.
For CCS(=O)(=O)N1CCC[C@H](C(=O)NC(C)(C)Cc2ccccc2)C1, the “% Inhibition” value was 2% and the Z score was -0.22.
With Cc1ccc(-c2n[nH]cc2-c2nc3cc(C#N)ccc3[nH]2)cc1 the “% Inhibition” value was 19% and the Z score was -2.42.
In the case of CC[C@H](C)NC(=O)c1cn(-c2cccc(C)n2)cn1, the “% Inhibition” value is reported as 37% and the Z score is reported as -1.31.
In the case of O=C(O)[C@H](Cc1c[nH]c2ccccc12)NC(=O)N1CCC(F)(F)CC1, the “% Inhibition” value is reported as 3% and the Z score is reported as -0.39.
In the case of O=C(N[C@@H]1C[C@H]2CC[C@@H]1O2)[C@H]1CC[C@@H](c2ccccc2)O1, the “% Inhibition” value is reported as -43% and the Z score is reported as 5.04.
In the case of CCOC(=O)[C@H]1CCCN(Cc2nc3nc(C)cc(N4CCCC4)n3n2)C1, the “% Inhibition” value is reported as -17% and the Z score is reported as 2.19.
With COCC1(C(=O)N(C)Cc2nonc2C)CCC1 the “% Inhibition” value was 1% and the Z score was -0.1.
In the case of Nc1ncccc1CN1CCC[C@H](Cn2cc(C3(O)CCCC3)nn2)C1, the “% Inhibition” value is reported as -9% and the Z score is reported as 1.12.
In the case of COc1cc2c(cc1CN(C)CCn1ccnc1C)OCCCO2, the “% Inhibition” value is reported as -3% and the Z score is reported as 0.55.
For NC(=O)C1(NC(=O)c2cccc(-c3ccc(CO)cc3CO)c2)CCCC1, the “% Inhibition” value was -2% and the Z score was 0.27.
Cc1cn2c(n1)CC[C@H](NS(=O)(=O)c1ccc(OC(C)C)cc1)C2 was tested, and the “% Inhibition” value was -1% and the Z score was 0.17.
For COc1ccc(NC(=O)N(C)CC(F)(F)F)c(Br)c1, the “% Inhibition” value was -6% and the Z score was 0.62.
With CNC(=O)N(O)[C@H]1N(C)C(=O)N(C2CCCCC2)C1(C)C the “% Inhibition” value was -1% and the Z score was 0.23.
In the case of CC1CC(C)CN(S(=O)(=O)c2ccc3c(c2)N(CC(=O)N2CCOCC2)C(=O)CO3)C1 (centres undefined), the “% Inhibition” value is reported as -1% and the Z score is reported as 0.11.
In the case of CCc1ccc(CNC(=O)c2snc(-c3ccncc3)c2N)cc1, the “% Inhibition” value is reported as -12% and the Z score is reported as 1.17.
With Cc1ccc(NC(=O)Cn2cnc(-c3noc(-c4cccnc4)n3)c2)cc1C the “% Inhibition” value was -5% and the Z score was 0.64.
CC(C)N(C[C@H]1CCC(=O)N1)C(=O)c1cccc(-c2cn[nH]c2)c1 was tested, and the “% Inhibition” value was -9% and the Z score was 1.14.
For Cc1nn(-c2nncc(-c3ccc(F)cc3)n2)c2c1[C@@H](c1cccc(Cl)c1)CC(=O)N2, the “% Inhibition” value was 11% and the Z score was -2.1.
In the case of O=S(=O)(c1c(F)cccc1Cl)N1CCC(n2ccnn2)CC1, the “% Inhibition” value is reported as -7% and the Z score is reported as 0.72.
With CCCCCc1nc(CN2CCOCC2)n(-c2ccc(C(=O)O)cc2)n1 the “% Inhibition” value was -6% and the Z score was 1.13.
Cc1nc(CNc2ccc(S(=O)(=O)CCO)cc2)cs1 was tested, and the “% Inhibition” value was -22% and the Z score was 4.06.
CCN(CC)c1nc(NCc2ccc(Cl)cc2)c2cnn(C)c2n1 was tested, and the “% Inhibition” value was 12% and the Z score was -2.31.
With O=C(N[C@@H](C(=O)O)c1ccc(F)cc1F)c1cn(-c2ccc(Br)cc2)cn1 the “% Inhibition” value was -21% and the Z score was 2.11.
With COc1ccc(C(=O)C2CCN(S(=O)(=O)CCC(C)(C)C)CC2)cc1 the “% Inhibition” value was -15% and the Z score was 2.32.
For COc1ccc(CNc2c(CO)cnc3c2cnn3C)cc1, the “% Inhibition” value was -2% and the Z score was 0.24.
With CC(=O)NC[C@@H]1CN(C(=O)Cc2c[nH]c3cc(C)ccc23)C[C@H]1c1cncn1C the “% Inhibition” value was -13% and the Z score was 2.11.
N#Cc1ccnc(NCCN2CCCOCC2)c1 was tested, and the “% Inhibition” value was -15% and the Z score was 3.05.
With CN(CC(=O)Nc1cc(C2CCCC2)nn1-c1ccccc1)Cc1ccco1 the “% Inhibition” value was -6% and the Z score was 0.65.
In the case of Cc1cc(C[C@H](C)Nc2ccc(C(F)(F)F)cn2)n[nH]1, the “% Inhibition” value is reported as 5% and the Z score is reported as -0.65.
With Cc1ccc(CN2CCC(N(C(=O)NCCc3ccccc3)C3CCOCC3)CC2)cc1C the “% Inhibition” value was 3% and the Z score was -0.43.
In the case of O=c1ccc(-c2ccc3c(c2)OCO3)nn1Cc1cccc2ccccc12, the “% Inhibition” value is reported as 2% and the Z score is reported as -0.43.
With CCS(=O)(=O)N1CCC[C@H](Cn2c(C)cnc2C2CC2)C1 the “% Inhibition” value was -14% and the Z score was 1.78.
In the case of O=C(C1=CCCC1)N1CCn2c(nnc2C(F)(F)F)C1, the “% Inhibition” value is reported as -9% and the Z score is reported as 1.15.
O=C(Nc1ccncc1NC(=O)c1ccccc1)c1ccccc1 was tested, and the “% Inhibition” value was 4% and the Z score was -0.58.
CN1CC[C@H](NS(=O)(=O)CCC(C)(C)C(F)(F)F)CC1=O was tested, and the “% Inhibition” value was -7% and the Z score was 1.2.
FC(F)(F)c1ccc2sc(NCCN3CCOCC3)nc2c1 was tested, and the “% Inhibition” value was -3% and the Z score was 0.32.
With O=C1CCCc2cc(C(=O)Nc3ccn(CC(=O)N4CCOCC4)n3)ccc2N1 the “% Inhibition” value was 9% and the Z score was -1.11.
With Cc1ccccc1Cn1cnc2c1c(=O)n(CC1CC1)c(=O)n2-c1cccc(Cl)c1 the “% Inhibition” value was 10% and the Z score was -1.21.
With CS(=O)(=O)N1CC[C@H](C2CCN(c3ncccn3)CC2)C1 the “% Inhibition” value was -14% and the Z score was 1.33.
In the case of Cc1cccc(NC(=O)C2CCCN(CN3C(=O)NC(c4ccccc4)(C(F)(F)F)C3=O)C2)n1 (centres undefined), the “% Inhibition” value is reported as -30% and the Z score is reported as 3.58.
CC(=O)NCC[C@H]1Cn2cccc2C1=O was tested, and the “% Inhibition” value was -5% and the Z score was 0.61.
For Cc1ccccc1[C@H]1CCCN(C(=O)Cc2cccnc2)C1, the “% Inhibition” value was 13% and the Z score was -1.7.
Cc1n[nH]c(C)c1CC(=O)N[C@@H](Cc1ccccc1)C(N)=O was tested, and the “% Inhibition” value was -9% and the Z score was 1.41.
With Cc1ccc2cc1Oc1cccc(c1)CO[C@H]1CN(C(=O)CCN3CCCC3=O)C[C@@H]1NC(=O)CN(C)C2=O the “% Inhibition” value was -16% and the Z score was 2.97.
In the case of Cc1c[nH]c([C@H](C)NS(=O)(=O)c2ccc(-c3onc(C)c3C)o2)n1, the “% Inhibition” value is reported as 0% and the Z score is reported as -0.03.
With CC(=O)N1CCC(C(=O)Nc2ccc(N3CCCCC3)cc2)CC1 the “% Inhibition” value was 18% and the Z score was -2.08.
In the case of Cc1ncsc1C(=O)NCC1CCN(C(=O)C(=O)c2cccn2C)CC1, the “% Inhibition” value is reported as -26% and the Z score is reported as 2.39.
For O=C([C@@H]1COc2ccccc2O1)N1CCC(O)(CO)CC1, the “% Inhibition” value was -17% and the Z score was 2.21.
For O=C(c1nc(N2CCOCC2)ncc1Cl)N1CCc2ccccc21, the “% Inhibition” value was 12% and the Z score was -2.24.
With O=C1Nc2cc(C(=O)N3CCN(c4ccc(F)cc4)CC3)ccc2N2CCCC[C@@H]12 the “% Inhibition” value was -2% and the Z score was 0.35.
For CC(C)N(C(=O)[C@@H]1CCOc2ccc(Cl)cc21)C1CCOCC1, the “% Inhibition” value was 29% and the Z score was -3.91.
O=C(c1ccncc1)N1CCC2(CC1)c1nc[nH]c1CCN2C(=O)C1CCC1 was tested, and the “% Inhibition” value was 1% and the Z score was -0.16.
With CC1CN(c2cc(N3CCC(C)(O)CC3)ncn2)CC(C2CC2)O1 (centres undefined) the “% Inhibition” value was 8% and the Z score was -0.99.
COCCN1CC(=O)N[C@H]2CN(Cc3cncn3C)C[C@@H]2OCc2cccc(c2)Oc2cncc(c2)C1=O was tested, and the “% Inhibition” value was -20% and the Z score was 2.57.
For O=C(NC1(c2ccc(F)c(F)c2)CC1)C(F)F, the “% Inhibition” value was -6% and the Z score was 1.03.
With O=C(Nc1ccc(C(F)(F)F)cc1)[C@@H]1CCN(c2ccc(Cl)cc2Cl)C1=O the “% Inhibition” value was 0% and the Z score was 0.06.
For O=C(NCCN1CCN(c2ccccc2F)CC1)c1ccc(N2CCOc3ccc(Cl)cc32)s1, the “% Inhibition” value was -9% and the Z score was 1.16.
For O=C(CCCc1cn[nH]c1)NC[C@@H]1COc2ccccc2C1, the “% Inhibition” value was -13% and the Z score was 1.86.
NC(=O)[C@H]1CCN(c2ncc(Br)c3ccc(F)cc23)C1 was tested, and the “% Inhibition” value was -4% and the Z score was 0.34.
Nc1cc(C(=O)NC[C@H]2CCN(C/C=C/c3ccccc3)C2)ccn1 was tested, and the “% Inhibition” value was -13% and the Z score was 1.75.
Cc1nc2cc(-c3cccc4ccnn34)ccc2s1 was tested, and the “% Inhibition” value was -21% and the Z score was 2.11.
With Cc1cc(C)c(NCc2ccsc2)c(C)c1 the “% Inhibition” value was -6% and the Z score was 0.92.
For Cn1cc(Cl)cc1C(=O)N1CC(NC(=O)OCc2ccccc2)C1, the “% Inhibition” value was -10% and the Z score was 1.28.
In the case of Cc1c[nH]c(CN(C)Cc2cc(C(C)C)on2)c(C)c1=O, the “% Inhibition” value is reported as 2% and the Z score is reported as -0.35.
With C[C@@H](CN(C)Cc1ccccc1)NC(=O)C1=COCCC1 the “% Inhibition” value was -5% and the Z score was 0.42.
For CCN1CCCN(C(=O)N[C@H]2CCN(CC(F)F)C2)CC1=O, the “% Inhibition” value was 11% and the Z score was -1.46.
